These are yes or no findings as the source states them, for the method shown. For some assays here: In cells and extracts the contact can be indirect. Some binding calls cover weakened binding; strength is not graded here. For some assays here: Sequences can lack the tags named with a protein.
How the values were obtained:
Clb3-HA (budding yeast) = target: T1, Clb3-HA (budding yeast) (UniProt P24870); test: co-IP; immunoprecipitation of Clb3/Cdk1 from a yeast lysate expressing Clb3-HA, before a kinase assay; blot with antibodies against HA and PSTAIR
T1 sequence: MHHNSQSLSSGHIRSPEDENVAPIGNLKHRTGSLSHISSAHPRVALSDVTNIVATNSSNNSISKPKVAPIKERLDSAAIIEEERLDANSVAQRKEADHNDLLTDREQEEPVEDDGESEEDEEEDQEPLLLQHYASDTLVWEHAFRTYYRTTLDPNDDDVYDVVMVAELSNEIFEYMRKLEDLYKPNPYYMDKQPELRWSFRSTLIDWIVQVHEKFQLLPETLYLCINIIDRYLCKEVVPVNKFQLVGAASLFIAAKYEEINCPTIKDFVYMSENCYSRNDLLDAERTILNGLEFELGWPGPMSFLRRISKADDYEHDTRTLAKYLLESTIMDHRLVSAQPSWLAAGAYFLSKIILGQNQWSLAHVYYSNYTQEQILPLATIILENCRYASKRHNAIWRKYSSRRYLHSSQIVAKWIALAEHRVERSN

Protein sequences, listed by entry. Tags and fused reporters are not part of them.
UniProt P00546: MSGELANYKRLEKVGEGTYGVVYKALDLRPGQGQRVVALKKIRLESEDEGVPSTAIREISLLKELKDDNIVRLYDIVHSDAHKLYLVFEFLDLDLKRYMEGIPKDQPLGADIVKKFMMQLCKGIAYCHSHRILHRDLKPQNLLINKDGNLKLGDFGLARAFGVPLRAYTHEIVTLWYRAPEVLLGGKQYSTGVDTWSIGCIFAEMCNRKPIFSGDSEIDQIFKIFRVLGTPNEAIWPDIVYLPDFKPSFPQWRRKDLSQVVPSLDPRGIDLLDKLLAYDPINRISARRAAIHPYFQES

[1] = target: T2, Ndd1 (two-hybrid fusion, Fig. S5f) (budding yeast) (UniProt Q08887); test: two-hybrid; Yeast-two-Hybrid of Ndd1 with Clb2 and Clb3 (Fig. S5f); bait and prey not told
T2 sequence: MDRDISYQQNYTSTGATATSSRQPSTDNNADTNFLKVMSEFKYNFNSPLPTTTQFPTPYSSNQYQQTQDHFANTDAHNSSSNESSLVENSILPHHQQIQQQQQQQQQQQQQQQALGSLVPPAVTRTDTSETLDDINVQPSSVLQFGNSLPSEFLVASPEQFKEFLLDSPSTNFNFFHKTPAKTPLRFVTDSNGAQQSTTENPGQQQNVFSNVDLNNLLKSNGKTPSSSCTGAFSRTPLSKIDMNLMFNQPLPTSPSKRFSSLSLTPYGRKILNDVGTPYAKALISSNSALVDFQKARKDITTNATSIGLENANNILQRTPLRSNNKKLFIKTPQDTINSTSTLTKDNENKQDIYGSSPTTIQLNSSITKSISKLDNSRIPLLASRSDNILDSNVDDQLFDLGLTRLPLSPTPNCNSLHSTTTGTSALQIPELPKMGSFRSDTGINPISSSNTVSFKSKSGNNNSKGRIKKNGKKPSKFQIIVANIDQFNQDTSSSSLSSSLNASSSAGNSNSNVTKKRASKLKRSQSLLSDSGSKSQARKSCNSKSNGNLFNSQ

[2] = target: T3, Fkh2 full-length (two-hybrid bait) (budding yeast) (UniProt P41813); test: two-hybrid; LexA-Fkh2 baits (pBTM117) and AD-Clb1-6 preys (pACT4), overexpressed; yeast spotted onto SDII and SDIV selective media or on a membrane for beta-galactosidase activity
T3 sequence: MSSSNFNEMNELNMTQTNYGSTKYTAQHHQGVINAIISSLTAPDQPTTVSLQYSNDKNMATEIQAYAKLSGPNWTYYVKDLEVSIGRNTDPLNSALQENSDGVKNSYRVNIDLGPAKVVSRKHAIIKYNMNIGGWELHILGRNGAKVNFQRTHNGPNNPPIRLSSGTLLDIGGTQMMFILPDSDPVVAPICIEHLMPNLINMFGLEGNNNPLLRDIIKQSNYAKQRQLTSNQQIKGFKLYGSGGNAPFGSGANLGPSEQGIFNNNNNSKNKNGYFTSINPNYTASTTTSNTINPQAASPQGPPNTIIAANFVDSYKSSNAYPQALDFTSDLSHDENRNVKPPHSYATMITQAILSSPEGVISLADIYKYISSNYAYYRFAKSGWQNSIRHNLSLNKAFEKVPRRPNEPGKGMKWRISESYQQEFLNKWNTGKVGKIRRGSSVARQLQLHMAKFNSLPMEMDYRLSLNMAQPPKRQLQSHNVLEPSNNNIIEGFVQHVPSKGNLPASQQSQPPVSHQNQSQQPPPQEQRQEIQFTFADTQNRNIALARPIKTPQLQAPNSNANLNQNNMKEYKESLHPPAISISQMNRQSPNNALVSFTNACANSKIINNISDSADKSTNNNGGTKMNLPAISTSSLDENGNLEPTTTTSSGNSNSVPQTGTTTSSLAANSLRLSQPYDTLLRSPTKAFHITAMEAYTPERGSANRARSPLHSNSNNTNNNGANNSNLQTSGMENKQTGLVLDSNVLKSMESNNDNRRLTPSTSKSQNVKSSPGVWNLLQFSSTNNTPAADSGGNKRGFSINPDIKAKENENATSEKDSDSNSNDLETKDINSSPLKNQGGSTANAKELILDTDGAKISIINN

[3] = target: T4, LexA-Fkh2_(387), truncated C-terminal region of Fkh2 (amino acids 387-862) (budding yeast) (UniProt P41813); test: as above
T4 sequence: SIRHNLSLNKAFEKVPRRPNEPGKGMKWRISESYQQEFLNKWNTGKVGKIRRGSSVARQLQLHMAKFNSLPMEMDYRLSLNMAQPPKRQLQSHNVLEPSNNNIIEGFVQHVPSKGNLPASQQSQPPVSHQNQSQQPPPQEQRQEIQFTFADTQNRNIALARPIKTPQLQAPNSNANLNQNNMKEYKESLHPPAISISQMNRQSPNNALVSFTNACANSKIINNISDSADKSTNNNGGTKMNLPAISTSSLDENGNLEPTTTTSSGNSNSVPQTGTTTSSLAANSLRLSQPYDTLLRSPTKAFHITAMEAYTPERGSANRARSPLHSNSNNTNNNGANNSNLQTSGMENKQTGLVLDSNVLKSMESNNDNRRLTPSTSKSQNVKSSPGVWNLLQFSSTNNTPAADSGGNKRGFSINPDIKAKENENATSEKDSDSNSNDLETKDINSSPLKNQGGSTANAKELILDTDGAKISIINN

[4] = target: T5, Ndd1 (GST pull-down, Supplementary Fig. S5g) (budding yeast) (UniProt Q08887); test: pull-down; GST pull-down of Ndd1 with Clb2 and Clb3 (Supplementary Fig. S5g)
T5 sequence: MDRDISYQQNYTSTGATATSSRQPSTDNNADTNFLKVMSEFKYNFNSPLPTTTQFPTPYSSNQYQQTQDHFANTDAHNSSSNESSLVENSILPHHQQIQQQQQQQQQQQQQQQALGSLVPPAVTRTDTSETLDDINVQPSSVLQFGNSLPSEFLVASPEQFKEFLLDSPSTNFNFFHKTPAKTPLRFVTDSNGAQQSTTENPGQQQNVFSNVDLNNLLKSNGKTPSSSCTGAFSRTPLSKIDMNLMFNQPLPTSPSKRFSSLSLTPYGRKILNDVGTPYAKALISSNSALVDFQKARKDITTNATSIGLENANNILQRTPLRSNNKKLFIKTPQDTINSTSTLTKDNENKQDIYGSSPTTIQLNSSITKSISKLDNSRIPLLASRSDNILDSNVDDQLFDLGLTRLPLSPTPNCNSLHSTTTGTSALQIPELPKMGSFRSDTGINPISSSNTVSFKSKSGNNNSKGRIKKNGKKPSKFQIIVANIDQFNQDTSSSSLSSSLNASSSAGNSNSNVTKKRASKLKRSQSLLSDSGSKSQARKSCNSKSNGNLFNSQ

Ndd1-VC (budding yeast) = target: T6, Ndd1-VC (budding yeast) (UniProt Q08887); test: split reporter; BiFC with Venus fragments: Ndd1-VC in haploid yeast cells, VN fusions from p426 plasmids; fluorescence microscopy; for Fkh2/Ndd1 followed in time after alpha-factor synchronisation and in hydroxyurea-treated cells
T6 sequence: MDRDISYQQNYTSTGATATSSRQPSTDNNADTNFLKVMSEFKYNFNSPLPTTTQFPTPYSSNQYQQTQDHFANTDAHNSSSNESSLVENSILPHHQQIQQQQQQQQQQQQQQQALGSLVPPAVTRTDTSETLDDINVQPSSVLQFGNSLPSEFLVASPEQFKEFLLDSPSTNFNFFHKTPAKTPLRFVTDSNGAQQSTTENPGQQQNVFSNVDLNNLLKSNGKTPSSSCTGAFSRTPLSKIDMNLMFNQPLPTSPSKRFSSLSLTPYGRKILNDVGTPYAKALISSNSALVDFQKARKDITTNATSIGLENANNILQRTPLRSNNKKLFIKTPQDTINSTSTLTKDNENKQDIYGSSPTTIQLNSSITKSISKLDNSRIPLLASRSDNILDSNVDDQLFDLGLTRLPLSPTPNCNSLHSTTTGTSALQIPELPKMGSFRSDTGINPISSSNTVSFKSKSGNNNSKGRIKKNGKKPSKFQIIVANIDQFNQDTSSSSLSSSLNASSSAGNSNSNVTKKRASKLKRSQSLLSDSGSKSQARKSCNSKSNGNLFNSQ

## Cdk1 (from UniProt P00546 1-298) (enzyme)
Clb3-HA (budding yeast)
  binding: binds

B1: AD-Clb2 (protein, UniProt P24869 1-491)
chain: MSNPIENTENSQNTSSSRFLRNVQRLALNNVTNTTFQKSNANNPALTNFKSTLNSVKKEGSRIPQFTRESVSRSTAAQEEKRTLKENGIQLPKNNLLDDKENQDPSSQQFGALTSIKEGRAELPANISLQESSSAKEIIQHDPLKGVGSSTEVVHNSVENEKLHPARSQLQVRNTESETDSGKKRPISTIVEQELPKKFKVCDENGKEEYEWEDLDAEDVNDPFMVSEYVNDIFEYLHQLEVITLPKKEDLYQHRNIHQNRDILVNWLVKIHNKFGLLPETLYLAINIMDRFLGKELVQLDKLQLVGTSCLFIASKYEEVYSPSIKHFASETDGACTEDEIKEGEKFILKTLKFNLNYPNPMNFLRRISKADDYDIQSRTLAKFLLEISLVDFRFIGILPSLCAAAAMFMSRKMLGKGKWDGNLIHYSGGYTKEELAPVCHMIMDYLVSPIVHDEFHRKYQSRRFMKASIISVQWALKVRKNGYDIMTLHE
[1]
  binding: binds
[2]
  binding: binds
[3]
  binding: binds

B2: AD-Clb3 (protein, UniProt P24870 1-427)
chain: MHHNSQSLSSGHIRSPEDENVAPIGNLKHRTGSLSHISSAHPRVALSDVTNIVATNSSNNSISKPKVAPIKERLDSAAIIEEERLDANSVAQRKEADHNDLLTDREQEEPVEDDGESEEDEEEDQEPLLLQHYASDTLVWEHAFRTYYRTTLDPNDDDVYDVVMVAELSNEIFEYMRKLEDLYKPNPYYMDKQPELRWSFRSTLIDWIVQVHEKFQLLPETLYLCINIIDRYLCKEVVPVNKFQLVGAASLFIAAKYEEINCPTIKDFVYMSENCYSRNDLLDAERTILNGLEFELGWPGPMSFLRRISKADDYEHDTRTLAKYLLESTIMDHRLVSAQPSWLAAGAYFLSKIILGQNQWSLAHVYYSNYTQEQILPLATIILENCRYASKRHNAIWRKYSSRRYLHSSQIVAKWIALAEHRVERSN
[1]
  binding: binds
[2]
  binding: binds
[3]
  binding: binds

B3: Clb2 (GST pull-down with Ndd1, Supplementary Fig. S5g) (protein, UniProt P24869 1-491)
chain: MSNPIENTENSQNTSSSRFLRNVQRLALNNVTNTTFQKSNANNPALTNFKSTLNSVKKEGSRIPQFTRESVSRSTAAQEEKRTLKENGIQLPKNNLLDDKENQDPSSQQFGALTSIKEGRAELPANISLQESSSAKEIIQHDPLKGVGSSTEVVHNSVENEKLHPARSQLQVRNTESETDSGKKRPISTIVEQELPKKFKVCDENGKEEYEWEDLDAEDVNDPFMVSEYVNDIFEYLHQLEVITLPKKEDLYQHRNIHQNRDILVNWLVKIHNKFGLLPETLYLAINIMDRFLGKELVQLDKLQLVGTSCLFIASKYEEVYSPSIKHFASETDGACTEDEIKEGEKFILKTLKFNLNYPNPMNFLRRISKADDYDIQSRTLAKFLLEISLVDFRFIGILPSLCAAAAMFMSRKMLGKGKWDGNLIHYSGGYTKEELAPVCHMIMDYLVSPIVHDEFHRKYQSRRFMKASIISVQWALKVRKNGYDIMTLHE
[4]
  binding: binds

B4: Clb3 (GST pull-down with Ndd1, Supplementary Fig. S5g) (protein, UniProt P24870 1-427)
chain: MHHNSQSLSSGHIRSPEDENVAPIGNLKHRTGSLSHISSAHPRVALSDVTNIVATNSSNNSISKPKVAPIKERLDSAAIIEEERLDANSVAQRKEADHNDLLTDREQEEPVEDDGESEEDEEEDQEPLLLQHYASDTLVWEHAFRTYYRTTLDPNDDDVYDVVMVAELSNEIFEYMRKLEDLYKPNPYYMDKQPELRWSFRSTLIDWIVQVHEKFQLLPETLYLCINIIDRYLCKEVVPVNKFQLVGAASLFIAAKYEEINCPTIKDFVYMSENCYSRNDLLDAERTILNGLEFELGWPGPMSFLRRISKADDYEHDTRTLAKYLLESTIMDHRLVSAQPSWLAAGAYFLSKIILGQNQWSLAHVYYSNYTQEQILPLATIILENCRYASKRHNAIWRKYSSRRYLHSSQIVAKWIALAEHRVERSN
[4]
  binding: binds

B5: VN-Clb1 (protein, UniProt P24868 1-471)
chain: MSRSLLVENSRTINSNEEKGVNESQYILQKRNVPRTILGNVTNNANILQEISMNRKIGMKNFSKLNNFFPLKDDVSRADDFTSSFNDSRQGVKQEVLNNKENIPEYGYSEQEKQQCSNDDSFHTNSTALSCNRLIYSENKSISTQMEWQKKIMREDSKKKRPISTLVEQDDQKKFKLHELTTEEEVLEEYEWDDLDEEDCDDPLMVSEEVNDIFDYLHHLEIITLPNKANLYKHKNIKQNRDILVNWIIKIHNKFGLLPETLYLAINIMDRFLCEEVVQLNRLQLVGTSCLFIASKYEEIYSPSIKHFAYETDGACSVEDIKEGERFILEKLDFQISFANPMNFLRRISKADDYDIQSRTLAKFLMEISIVDFKFIGILPSLCASAAMFLSRKMLGKGTWDGNLIHYSGGYTKAKLYPVCQLLMDYLVGSTIHDEFLKKYQSRRFLKASIISIEWALKVRKNGYDIMTLHE
Ndd1-VC (budding yeast)
  binding: no binding

B6: VN-Clb4 (protein, UniProt P24871 1-460)
chain: MMLEGYTVQPPQSTLIGDIEIQDENANQEVKNVLYQGVQKGIKRLEKRQRRVALGDVTSQKANKIHNAIHNKFHQTKNNFEIENIRSSALVKEQQRDVRHEDSDYFLIDSSEGSSTDDEQVNEDAIDDLLSRRVNDQQIQADEVYEDFDGEMQDVIEEDVDSQIEPLSPINNDEIQTELDRAFEKYFRSVPNPLDDDTHDVVMVVEYASDIFYYLRELEVKYRPNPYYMQNQVELTWPFRRTMIDWLVQLHFRFQLLPETLYLTINIVDRFLSKKTVTLNRFQLVGVSALFIAAKFEEINCPTLDDLVYMLENTYTRDDIIRAEQYMIDTLEFEIGWPGPMPFLRRISKADDYDFEPRTLAKYLLETTIVEPKLVAAAPSWLAAGAYFLSRTILGSNDWSLKHVFYSGYTSSQIIPLASLILENCKNASRRHHSIWKKYFDQKHYRCSQIVEEWIVSTEA
Ndd1-VC (budding yeast)
  binding: no binding
